# Reference: PubChem BioAssay AID662 (National Center for Advancing Translational Sciences (NCATS), 2007)
# The whole screen tested about 71,000 compounds, of which about 1,800 (2.5%) were called active. This list was built around the results that the source calls inconclusive (neither active nor inactive); the mix of calls is not that of the screen. Calls follow the shape of the dose curve; as a rule, active = well fitted activation curve with a large enough effect in the signal ratio, with a control signal flat (not every such curve was filed as active); inconclusive = small, poorly fitted or top-dose-only effect, or effect the other way, or a change in a side signal; inactive = flat fitted curve, though single readings scatter; the % refers to the signal ratio. Potencies beside an inconclusive call are fits to weak or partial responses and may not hold up.
# Assay: Cell signaling CRE-BLA (Fsk stim); as to activity change, negative = inhibition: % of control where 0% means no effect
# Conditions: CHO CRE-bla reporter (cAMP response element driving beta-lactamase), forskolin EC10, beta-lactamase ratio; activity change, negative = inhibition: at 38.2 µM (top of the series) unless noted
# Method in brief: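 Reporter-gene assay: CHO cells with beta-lactamase behind cAMP responsive elements, co-treated with compound and EC10 NKH 477 for 3 hours at 37 degrees Celsius. Activity came from the 460/530 nm CCF4 emission ratio.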
# Potency is read from the fitted curve at half-maximal effect; tags tell the direction and shape of the fitted curve.
SMILES,Potency,"activity change, negative = inhibition"
Cc1cnc(CNc2ncncc2-c2ccoc2)cn1,"inconclusive: 25.1 µM [rising, single point]",–
CC(=O)Nc1cccc(Oc2cc(C#N)c(C#N)cc2N2CCOCC2)c1,active: 5.01 µM,–
CCc1ccc2c(CN(CC)Cc3nc4ccccc4c(=O)[nH]3)cc(=O)oc2c1,–,inconclusive: 28.9%
COC(=O)c1ccc(CSc2nc3c(cnn3-c3ccc(Cl)cc3)c(=O)[nH]2)o1,"inconclusive: 3.98 µM [rising, partial curve, poor fit]",–
COc1nnc(-c2ccc(C)c(S(=O)(=O)NCCO)c2)c2ccccc12,"inconclusive: 10 µM [rising, partial curve]",–
COc1cc(OC)cc(N(C(=O)c2ccco2)C(C(=O)NC2CCCC2)c2ccc(N(C)C)cc2)c1 (stereo not drawn),–,inconclusive: -13.1%
COCCn1c(=O)c(-c2cccc(C#N)c2)nc2cnc(Oc3ccccc3)nc21,–,inconclusive: 13.9%
CC1=CC(C)(C)Nc2ccc(C)cc21,–,inactive
CC1(C)NC(=O)N(CC(O)COC2CCCCC2)C1=O (stereo not drawn),–,inactive
Cn1c(=O)c2c(SCc3ccccn3)nc(C3CC3)nc2n(C)c1=O,active: 2 µM,–
COC(=O)[C@@]1(Cc2ccc(OC)cc2)[C@H]2c3cc(C(=O)N(C)C)n(CCc4ccccn4)c3C[C@H]2CN1C(=O)c1ccccc1,–,inactive
S=C(c1ccc(N2CCCC2)cc1)N1CCCCC1,–,inactive
COCCn1c(=O)c(-c2cc(F)cc(F)c2)nc2cnc(OC)nc21,–,inactive
COCCN1CCN(c2c(C)c(C)nc3cc(-c4cccc(OC)c4)nn23)CC1,–,inactive
COc1ccc(CNC(=O)C(C)N(Cc2ccco2)C(=O)c2snc(C(N)=O)c2N)cc1 (stereo not drawn),–,inconclusive: -14.1%
Cc1ccc(-n2ncc3c(NCCCn4ccnc4)ncnc32)c(C)c1,–,inactive
Cc1noc(C)c1CSc1nc2ccccc2c(=O)n1-c1ccccc1,active: 10 µM,–
Cn1c(=O)c2c(nc(N3CCCCC3)n2CCSc2nc3ccccc3s2)n(C)c1=O,–,inactive
COc1ccc(C(=O)c2oc3ccc(OC)cc3c2N)cc1,"inconclusive: 20 µM [rising, single point]",–
CCOc1cc(-c2nn3cnnc3s2)cc(OCC)c1OCC,–,inconclusive: 16%
COc1cccc(C2=CC(c3cccc(OC)c3OC)n3nnnc3N2)c1 (stereo not drawn),–,inconclusive: 18.4%
O=c1cnc2cnc(N3CCNCC3)nc2n1Cc1cccs1,–,inconclusive: 20.7%
COc1ccc(OC)c(C2CC(=O)N3CN(c4ccc(C)c(Cl)c4)CSC3=C2C#N)c1 (stereo not drawn),–,inactive
Cc1cccn2c(=O)c3cc(C(=O)Nc4ccc(N(C)C)cc4)n(C)c3nc12,"inconclusive: 25.1 µM [falling, single point]",–
CCNc1nc(SCC(=O)OC)nc(N2CCOCC2)n1,"inconclusive: 10 µM [rising, partial curve]",–
C=CCn1c(COc2ccccc2F)nnc1SCC(=O)NC(=O)NCc1ccco1,"inconclusive: 5.01 µM [falling, single point]",–
Cc1c(C(=O)OC2CCCC2)[nH]c2c1C(=O)CC(c1ccco1)C2 (stereo not drawn),active: 0.501 µM,–

SMILES,Potency,"activity change, negative = inhibition"
CCC(=O)N1CCc2cc(S(=O)(=O)CCC(=O)Nc3ccc(C)c(F)c3)ccc21,–,inconclusive: 5.75%
Cc1ccc(C(=O)NCc2ccc3c(c2)OCO3)cc1S(=O)(=O)N1CCCCC1,"inconclusive: 25.1 µM [falling, single point]",–
O=C(COc1ccc(S(=O)(=O)N2CCCCC2)cc1)NCc1ccncc1,–,inactive
Cc1cccc(C2Nc3ccccc3C(=O)N2c2ccccc2)n1 (stereo not drawn),–,inactive
COc1ccccc1CNC(=O)CCN1C(=O)COc2ccc(C)cc21,–,inactive
COCCNC(=O)c1cc(-c2ccccc2OC)on1,–,inconclusive: 25.5%
O=S(=O)(c1cccc(-c2nnc(SCc3ccc(Cl)cc3)o2)c1)N1CCCCC1,"inconclusive: 0.1 µM [falling, single point]",–
Cc1noc(C)c1S(=O)(=O)N1CCC(C(=O)NCCC2=CCCCC2)CC1,–,inconclusive: -22.1%
c1ccc2c(N3CCCCC3)nc(N3CCCC3)nc2c1,"inconclusive: 2.51 µM [rising, partial curve, poor fit]",–
CCCCC(CC)COC(=O)c1ccccc1C(=O)O (stereo not drawn),–,inactive
Cc1ccc(C#N)cc1,–,inactive
Cc1cc(OCc2ccc(F)cc2)nc(-c2ccccc2O)n1,–,inactive
COc1ccc(CNC(=O)c2cnc3scc(C)n3c2=O)cc1,"inconclusive: 10 µM [rising, partial curve]",–
COc1ccc(Br)cc1C1SCCN1S(C)(=O)=O (stereo not drawn),"inconclusive: 12.6 µM [falling, single point]",–
O=C(NC1CCCC1)c1cnn2c(C(F)(F)F)cc(-c3ccco3)nc12,"inconclusive: 5.01 µM [rising, partial curve]",–
CN(C)c1nc(-c2ccccc2)c2cnn(Cc3ccccc3)c2n1,"inconclusive: 10 µM [rising, partial curve]",–
O=C(Nc1ccc(Cl)cn1)c1ccc(COCC(F)(F)C(F)F)o1,–,inactive
CCN(CC)CCCN1C(=O)c2oc3ccccc3c(=O)c2C1c1cccnc1 (stereo not drawn),–,inactive
CC1(C)[C@@H]2CC[C@@]1(C)C(=O)C2,–,inactive
CN(C(=O)COC(=O)C1CCN(S(=O)(=O)c2cccs2)CC1)C1CCS(=O)(=O)C1 (stereo not drawn),–,inconclusive: 20.4%
O=C1[C@@H]2C(c3ccccc3Cl)=NO[C@@H]2C(=O)N1Cc1ccccc1,–,inactive
N#Cc1c(SCC(=O)Nc2nccs2)nc2c(c1-c1ccco1)CCCC2,"inconclusive: 6.31 µM [rising, partial curve]",–
CCS(=O)(=O)N1CCC(C(=O)N2CCN(c3ccccc3)CC2)CC1,–,inconclusive: -21.3%
O=C(OCn1nnc2ccccc2c1=O)c1cn(-c2ccccc2)nc1-c1cccnc1,"inconclusive: 10 µM [rising, single point]",–
Cc1cc(Cl)nc2ccc(Cc3ccc4nc(Cl)cc(C)c4c3)cc12,"inconclusive: 2.51 µM [rising, partial curve]",–
Cc1cc(C(=O)O)ccc1-n1c(C)ccc1C,–,inactive
